# The list shows a part of the results.
# B1: Pbx1 (Cryptococcus neoformans) (protein)
# chain: ATTKCLVSGDQDSINNALALGGEGTTVTLCPGSVHRLNSSIIFTAPSQTLTTLGNPKDRNRAMLVVDGEDLACAIRADCKQCSHAMIRSLVIDGNRPQLLRIPKGDALIEVGNAESQTVRDCKLYEPRGWSALHFREGDERQCRFGHIVDNEIGPCGEEWDDEYDSMDETKPLWGNPRADGISLACKDSIVERNVVYDATDGAIVLFGSAGSTVKNNHVYARTRVILGGINLVDYEPWDGDYTNVKVHHNHLYALGRYFKVGIVIGPASWSDDTESVVHSASVTDNEFSGGYWGYGIVVASAKNFEVLRNKVIWDGEQGVARFSGVPGSRCPKAPENGKPTAFLINRGSAKGIFQDDFVNGEVQHIICLNPDQDPPYKPWRFRDSPEAIAAKQAENPTANSAFDSRIAEALVSYQMSLLNSMDAMTQKVEHLTNPIVDDALPFVHEHERAEADKKARQEASRKEKESGNKDVDMLNVKVEELEKSGRRLKKALDGLKSDFEGLSGRLKKSADENKPIIETIFVTSQNLLLGATSQQN
# Experiments:
# Test in all cases: glycan array binding signal (z-score within array); higher = stronger binding
# Details in all cases: glycan notation: IUPAC condensed, linker removed
# [1] = molecular target: Gal(b1-3)[GlcNAc(b1-6)]GalNAc
# In short: (§1)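 Arrays were curated from the Consortium for Functional Glycomics database, 3228 in total, and kept only where the protein sequence was available. Binding is expressed as a within-array Z-score. This score was averaged across arrays of the same protein sequence at different concentrations or buffers and across linkers, and negative values can be read as non-binding.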
# [2] = molecular target: Gal(b1-3)[Neu5Ac(a2-6)]GalNAc
# In short: as §1
# [3] = molecular target: Gal(b1-3)[Neu5Ac(a2-6)]GlcNAc(b1-4)Gal(b1-4)Glc
# In short: as §1
# [4] = molecular target: Gal(b1-3)[Neu5Ac(b2-6)]GalNAc
# In short: as §1
# [5] = molecular target: Gal(b1-4)Gal
# In short: as §1
# [6] = molecular target: Gal(b1-4)GalNAc(a1-3)[Fuc(a1-2)]Gal(b1-4)GlcNAc
# In short: as §1
# [7] = molecular target: Gal(b1-4)GalNAc(b1-3)[Fuc(a1-2)]Gal(b1-4)GlcNAc
# In short: as §1
# [8] = molecular target: Gal(b1-4)Glc
# In short: as §1
# [9] = molecular target: Gal(b1-4)Glc6S
# In short: as §1
# [10] = molecular target: Gal(b1-4)GlcNAc
# In short: as §1
# [11] = molecular target: Gal(b1-4)GlcNAc(a1-6)Gal(b1-4)GlcNAc
# In short: as §1
# [12] = molecular target: Gal(b1-4)GlcNAc(b1-2)Man
# In short: as §1
# [13] = molecular target: Gal(b1-4)GlcNAc(b1-2)Man(a1-3)Man(b1-4)GlcNAc(b1-4)GlcNAc
# In short: as §1
# [14] = molecular target: Gal(b1-4)GlcNAc(b1-2)Man(a1-3)[Gal(b1-4)GlcNAc(b1-2)Man(a1-6)]Man(b1-4)GlcNAc(b1-4)GlcNAc
# In short: as §1
# [15] = molecular target: Gal(b1-4)GlcNAc(b1-2)Man(a1-3)[Gal(b1-4)GlcNAc(b1-2)Man(a1-6)]Man(b1-4)GlcNAc(b1-4)[Fuc(a1-6)]GlcNAc
# In short: as §1
# [16] = molecular target: Gal(b1-4)GlcNAc(b1-2)Man(a1-3)[Gal(b1-4)GlcNAc(b1-2)Man(a1-6)][Gal(b1-4)GlcNAc(b1-4)]Man(b1-4)GlcNAc(b1-4)[Fuc(a1-6)]GlcNAc
# In short: as §1
# [17] = molecular target: Gal(b1-4)GlcNAc(b1-2)Man(a1-3)[Gal(b1-4)GlcNAc(b1-2)Man(a1-6)][GlcNAc(b1-4)]Man(b1-4)GlcNAc(b1-4)[Fuc(a1-6)]GlcNAc
# In short: as §1
# [18] = molecular target: Gal(b1-4)GlcNAc(b1-2)Man(a1-3)[GlcNAc(b1-2)Man(a1-6)]Man(b1-4)GlcNAc(b1-4)GlcNAc
# In short: as §1
# [19] = molecular target: Gal(b1-4)GlcNAc(b1-2)Man(a1-3)[GlcNAc(b1-4)][Gal(b1-4)GlcNAc(b1-2)Man(a1-6)]Man(b1-4)GlcNAc(b1-4)GlcNAc
# In short: as §1
# [20] = molecular target: Gal(b1-4)GlcNAc(b1-2)Man(a1-3)[Man(a1-6)]Man(b1-4)GlcNAc(b1-4)GlcNAc
# In short: as §1
# [21] = molecular target: Gal(b1-4)GlcNAc(b1-2)Man(a1-6)Man(b1-4)GlcNAc(b1-4)GlcNAc
# In short: as §1
# [22] = molecular target: Gal(b1-4)GlcNAc(b1-2)Man(a1-6)[GlcNAc(b1-2)Man(a1-3)]Man(b1-4)GlcNAc(b1-4)GlcNAc
# In short: as §1
# [23] = molecular target: Gal(b1-4)GlcNAc(b1-2)Man(a1-6)[Man(a1-3)]Man(b1-4)GlcNAc(b1-4)GlcNAc
# In short: as §1
# [24] = molecular target: Gal(b1-4)GlcNAc(b1-2)[Gal(b1-4)GlcNAc(b1-4)]Man(a1-3)[Gal(b1-4)GlcNAc(b1-2)Man(a1-6)]Man(b1-4)GlcNAc(b1-4)GlcNAc
# In short: as §1
# [25] = molecular target: Gal(b1-4)GlcNAc(b1-2)[Gal(b1-4)GlcNAc(b1-4)]Man(a1-3)[Gal(b1-4)GlcNAc(b1-2)[Gal(b1-4)GlcNAc(b1-6)]Man(a1-6)]Man(b1-4)GlcNAc(b1-4)GlcNAc
# In short: as §1
# [26] = molecular target: Gal(b1-4)GlcNAc(b1-2)[Gal(b1-4)GlcNAc(b1-4)]Man(a1-3)[GlcNAc(b1-4)][Gal(b1-4)GlcNAc(b1-2)Man(a1-6)]Man(b1-4)GlcNAc(b1-4)GlcNAc
# In short: as §1
# [27] = molecular target: Gal(b1-4)GlcNAc(b1-2)[Gal(b1-4)GlcNAc(b1-4)]Man(a1-3)[GlcNAc(b1-4)][Gal(b1-4)GlcNAc(b1-2)[Gal(b1-4)GlcNAc(b1-6)]Man(a1-6)]Man(b1-4)GlcNAc(b1-4)GlcNAc
# In short: as §1
# [28] = molecular target: Gal(b1-4)GlcNAc(b1-2)[Gal(b1-4)GlcNAc(b1-6)]Man(a1-6)[Gal(b1-4)GlcNAc(b1-2)Man(a1-3)]Man(b1-4)GlcNAc(b1-4)GlcNAc
# In short: as §1
# [29] = molecular target: Gal(b1-4)GlcNAc(b1-2)[Gal(b1-4)GlcNAc(b1-6)]Man(a1-6)[Gal(b1-4)GlcNAc(b1-2)Man(a1-3)]Man(b1-4)GlcNAc(b1-4)[Fuc(a1-6)]GlcNAc
# In short: as §1
# [30] = molecular target: Gal(b1-4)GlcNAc(b1-2)[Gal(b1-4)GlcNAc(b1-6)]Man(a1-6)[GlcNAc(b1-4)][Gal(b1-4)GlcNAc(b1-2)Man(a1-3)]Man(b1-4)GlcNAc(b1-4)GlcNAc
# In short: as §1
# [31] = molecular target: Gal(b1-4)GlcNAc(b1-2)[Gal(b1-4)GlcNAc(b1-6)]Man(a1-6)[GlcNAc(b1-4)][Gal(b1-4)GlcNAc(b1-2)[Gal(b1-4)GlcNAc(b1-4)]Man(a1-3)]Man(b1-4)GlcNAc(b1-4)[Fuc(a1-6)]GlcNAc
# In short: as §1
# [32] = molecular target: Gal(b1-4)GlcNAc(b1-3)Gal(b1-3)GalNAc
# In short: as §1
# [33] = molecular target: Gal(b1-4)GlcNAc(b1-3)Gal(b1-3)GlcNAc
# In short: as §1
# [34] = molecular target: Gal(b1-4)GlcNAc(b1-3)Gal(b1-4)Glc
# In short: as §1
# [35] = molecular target: Gal(b1-4)GlcNAc(b1-3)Gal(b1-4)GlcNAc
# In short: as §1
# [36] = molecular target: Gal(b1-4)GlcNAc(b1-3)Gal(b1-4)GlcNAc(b1-2)Man(a1-3)[Gal(b1-4)GlcNAc(b1-3)Gal(b1-4)GlcNAc(b1-2)Man(a1-6)]Man(b1-4)GlcNAc(b1-4)GlcNAc
# In short: as §1
# [37] = molecular target: Gal(b1-4)GlcNAc(b1-3)Gal(b1-4)GlcNAc(b1-2)Man(a1-3)[Gal(b1-4)GlcNAc(b1-3)Gal(b1-4)GlcNAc(b1-2)Man(a1-6)]Man(b1-4)GlcNAc(b1-4)[Fuc(a1-6)]GlcNAc
# In short: as §1
# [38] = molecular target: Gal(b1-4)GlcNAc(b1-3)Gal(b1-4)GlcNAc(b1-2)[Gal(b1-4)GlcNAc(b1-3)Gal(b1-4)GlcNAc(b1-6)]Man(a1-6)[Gal(b1-4)GlcNAc(b1-3)Gal(b1-4)GlcNAc(b1-2)Man(a1-3)]Man(b1-4)GlcNAc(b1-4)GlcNAc
# In short: as §1
binder,measurement,setting,value
B1,glycan array binding signal (z-score),[1],-0.612
same,glycan array binding signal (z-score),[2],-0.198
same,glycan array binding signal (z-score),[3],0.35
same,glycan array binding signal (z-score),[4],-0.695
same,glycan array binding signal (z-score),[5],-0.237
same,glycan array binding signal (z-score),[6],-0.606
same,glycan array binding signal (z-score),[7],-0.466
same,glycan array binding signal (z-score),[8],-0.509
same,glycan array binding signal (z-score),[9],0.019
same,glycan array binding signal (z-score),[10],0.033
same,glycan array binding signal (z-score),[11],-0.547
same,glycan array binding signal (z-score),[12],-0.238
same,glycan array binding signal (z-score),[13],-0.195
same,glycan array binding signal (z-score),[14],-0.54
same,glycan array binding signal (z-score),[15],1.94
same,glycan array binding signal (z-score),[16],0.493
same,glycan array binding signal (z-score),[17],-0.574
same,glycan array binding signal (z-score),[18],0.357
same,glycan array binding signal (z-score),[19],0.182
same,glycan array binding signal (z-score),[20],-0.459
same,glycan array binding signal (z-score),[21],-0.527
same,glycan array binding signal (z-score),[22],0.149
same,glycan array binding signal (z-score),[23],-0.055
same,glycan array binding signal (z-score),[24],-0.177
same,glycan array binding signal (z-score),[25],0.072
same,glycan array binding signal (z-score),[26],-0.47
same,glycan array binding signal (z-score),[27],-0.86
same,glycan array binding signal (z-score),[28],-0.321
same,glycan array binding signal (z-score),[29],-0.639
same,glycan array binding signal (z-score),[30],-0.633
same,glycan array binding signal (z-score),[31],-0.189
same,glycan array binding signal (z-score),[32],-0.664
same,glycan array binding signal (z-score),[33],-0.525
same,glycan array binding signal (z-score),[34],-0.719
same,glycan array binding signal (z-score),[35],-0.5
same,glycan array binding signal (z-score),[36],2.91
same,glycan array binding signal (z-score),[37],1.72
same,glycan array binding signal (z-score),[38],0.813

# Reference: the supplement of paper PMC8728848
